According to PMC4336329 (PLoS ONE, 2015):
The campaign covered roughly 310,000 compounds. About 2,200 (0.71%) showed an effect of 50% or more. The effect is printed as a negative number. Some of the results follow.

Molecular target: human ether-à-go-go-related gene (hERG) potassium channel (human, UniProt Q12809)
Assay: primary screen, population patch clamp on CHO cells stably expressing hERG

human ether-à-go-go-related gene (hERG) potassium channel, sequence (Q12809 whole entry, looked up): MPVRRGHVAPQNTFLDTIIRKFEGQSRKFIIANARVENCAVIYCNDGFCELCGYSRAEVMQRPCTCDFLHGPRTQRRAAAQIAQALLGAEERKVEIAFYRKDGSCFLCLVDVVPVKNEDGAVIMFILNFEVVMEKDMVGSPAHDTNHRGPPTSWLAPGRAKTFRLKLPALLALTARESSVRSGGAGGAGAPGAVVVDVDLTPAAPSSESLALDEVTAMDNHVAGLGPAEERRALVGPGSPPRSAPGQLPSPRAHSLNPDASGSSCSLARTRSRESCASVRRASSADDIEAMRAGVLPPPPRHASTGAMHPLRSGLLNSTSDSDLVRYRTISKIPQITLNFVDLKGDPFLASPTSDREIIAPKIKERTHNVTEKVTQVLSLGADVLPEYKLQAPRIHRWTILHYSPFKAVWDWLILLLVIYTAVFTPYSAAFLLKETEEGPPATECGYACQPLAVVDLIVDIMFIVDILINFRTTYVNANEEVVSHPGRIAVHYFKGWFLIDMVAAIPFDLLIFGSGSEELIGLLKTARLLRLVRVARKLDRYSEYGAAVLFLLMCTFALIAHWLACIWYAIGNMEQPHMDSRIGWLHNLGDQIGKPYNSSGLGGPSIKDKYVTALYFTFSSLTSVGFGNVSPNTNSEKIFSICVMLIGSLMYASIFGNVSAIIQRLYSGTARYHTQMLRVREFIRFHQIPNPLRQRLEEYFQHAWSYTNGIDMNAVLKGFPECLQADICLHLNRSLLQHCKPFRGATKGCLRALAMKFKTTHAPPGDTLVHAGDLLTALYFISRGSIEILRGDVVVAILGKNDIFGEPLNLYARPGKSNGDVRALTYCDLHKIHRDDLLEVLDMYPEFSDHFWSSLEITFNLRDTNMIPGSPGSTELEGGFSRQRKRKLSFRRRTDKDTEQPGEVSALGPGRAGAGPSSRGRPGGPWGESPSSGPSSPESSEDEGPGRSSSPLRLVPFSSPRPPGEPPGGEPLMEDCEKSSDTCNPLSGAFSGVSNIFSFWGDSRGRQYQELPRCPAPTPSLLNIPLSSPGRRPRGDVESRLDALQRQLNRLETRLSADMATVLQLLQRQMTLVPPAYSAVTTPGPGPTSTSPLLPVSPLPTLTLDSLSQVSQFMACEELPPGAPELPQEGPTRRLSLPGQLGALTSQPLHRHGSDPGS

Compound	hERG current change (%, negative = inhibition) at 1uM [%]
CCCCC(CCC(=O)NNC(=O)Cc1ccccc1)C(=O)O (stereo not drawn)	1.46
COc1ccccc1NC(=O)CSc1nc(=O)n(Cc2ccncc2)c2c1CCCC2	6.01
O=C(NC1CCCc2ccccc21)C1CCCN(S(=O)(=O)c2cnc[nH]2)C1 (stereo not drawn)	6.56
CC(C)CNC(=O)COc1ncnc2sccc12	8.92
COc1ccc(-c2nn(CCC#N)cc2C(=O)Nc2cccc([N+](=O)[O-])c2)cc1OC	-9.87
CSc1ccc(NC(=O)NCCN2CCc3ccccc3C2)cc1	-18.7
Cc1cc(-c2nnc3sc(-c4ccc(Cl)cc4Cl)nn23)n[nH]1	11.5
O=C(NCCNC(=O)C1CC2CCC1C2)C1CC2CCC1C2 (stereo not drawn)	5.85
O=C(CN1CCN(Cc2ccc3c(c2)OCO3)CC1)N1CCc2[nH]c3ccc(F)cc3c2C1	-18.5
CC(C)(C)c1cc(C(=O)NCc2cc(F)cc3c2OCOC3)n(Cc2ccccc2)n1	10.3
Cc1ccc(-c2nn(-c3cc(Cl)ccc3[N+](=O)[O-])c(=O)c3ccccc23)cc1C	12.2
Cc1ccc(NC(=O)COC(=O)Cn2cnc3c2c(=O)n(C)c(=O)n3C)cc1Cl	4.08
CC(C)Oc1ccc(C(=O)NCc2cccnc2)cc1	11.9
O=C(Nc1ccccc1)Oc1ccccc1N1CCOCC1	7.21
CC(O)CNc1nc2sc3c(c2c(=O)n1CCc1ccccc1)CCCCC3 (stereo not drawn)	12.9
Cc1ccccc1C(=O)N1CCC(C(=O)NN2C(=O)NC3(CCC(C)CC3)C2=O)CC1 (stereo not drawn)	0.564
Cc1cccc(NC(=O)c2sc(Cl)nc2-c2ccccc2)c1	28
Cc1nn(CC(=O)NCCCc2ccccc2)c(=O)c2cc3occc3n12	13.2
CC(=O)NC(c1ccc(C(C)C)cc1)c1c(O)ccc2ccccc12 (stereo not drawn)	17.5
c1ccc(-c2cnnc3ccccc23)cc1	-0.645
O=C(Nc1ccccn1)c1ccc2ccccc2c1O	11
Cc1ccc(Cn2ncc3c(N4CCN(C5CCCC5)CC4)ncnc32)cc1	-0.0382

Compound	hERG current change (%, negative = inhibition) at 1uM [%]
N#Cc1cnn2c(-c3ccccc3)ccnc12	10.6
O=C(NCC1CCCCC1)C1CCCN(C(=O)NC2CCCCC2)C1 (stereo not drawn)	7.02
CC(C)N(C(=O)CSc1nnc(NC(=O)c2cccs2)s1)C(C)C	10.9
CC1(c2nnc(-c3cccc(Cl)c3)o2)CC(c2ccccc2F)=NO1 (stereo not drawn)	8.2
Fc1ccccc1COc1ccc(-c2nnn(Cc3ccccc3F)n2)cc1	10.4
Cc1csc(NC(=O)CCc2c(C)nc3cc(-c4ccc(Cl)cc4)nn3c2C)n1	5.86
Cc1cccc(NC(=O)CSc2nnc(CNC(=O)c3ccco3)n2C)c1C	-4.92
O=C(c1ccco1)N1CCN(c2c([N+](=O)[O-])nn(-c3cccc(Cl)c3)[n+]2[O-])CC1	0.245
Cc1sc(=NC(=O)c2ccco2)n(C)c1-c1ccc(Cl)cc1	-7.79
Cc1ccc(O)c(C(=O)c2cnn(C(=O)COc3ccccc3C#N)c2)c1	6.21
CC1(C)Cc2ccccc2C(NNC(=O)c2cccnc2)=N1	11.1
Cc1cc(Cl)cc(Br)c1OCCCN1C(=O)NC(C)(C)C1=O	15.5
CC1CCCCN1CCCNc1ccc(C(CC(N)=O)NC(=O)c2ccccc2)cc1[N+](=O)[O-] (stereo not drawn)	9.54
O/C(=C\c1nc2ccccc2nc1/C=C(\O)c1ccccc1)c1ccccc1	6.79
COc1ccc2c(c1)c(CC(=O)NCc1cc([N+](=O)[O-])ccc1O)c(C)n2C(=O)c1ccc(Cl)cc1	2.96
COC(=O)C1C(c2ccccc2)C(C(=O)N2CCOCC2)C1c1ccccc1 (stereo not drawn)	1.69
Cc1ccc(-n2c(C)cc(/C=N\NC(=O)CC(=O)NC(C)C)c2C)cc1	7.36
CO/N=C/NC(=O)N1OC[C@@H]2COc3ccc4ccccc4c3[C@@H]21	11.4
O=C(COc1ccc(F)cc1)N(Cc1ccc(Cl)cc1)C1CCS(=O)(=O)C1 (stereo not drawn)	16
C=CCSC1=N/C(=C\C=C\c2ccco2)C(=O)S1	10.4
CCOC(=O)C/C(C)=N/NC(=O)C1CC1(c1ccccc1)c1ccccc1 (stereo not drawn)	12.1
CC(C)[C@H](NC(=O)[C@@H]1Cc2ccccc2CN1C(=O)OC(C)(C)C)C(=O)NCc1ccco1	-2.34

Compound	hERG current change (%, negative = inhibition) at 1uM [%]
O=C(CN(CCc1ccccc1)C(=O)CNS(=O)(=O)c1ccccc1)NCc1ccco1	6.42
CCN(CC(=O)Nc1c(F)cccc1F)C(=O)CNC(=O)c1ccc(C)s1	14.5
Cc1noc(C)c1C(=O)N1CCC2(CC1)Oc1ccc(F)cc1C(=O)C21CC(c2ccc(Cl)cc2)=NO1 (stereo not drawn)	17.4
COCCNC(=O)/C(C#N)=C/c1ccccc1Br	3.84
Cc1cc2oc(=O)cc(CN3CCCCC3)c2cc1C(C)C	5.7
O=C(NCc1cccs1)C1CCN(S(=O)(=O)c2ccc3c(c2)OCCO3)CC1	11.5
COc1ccc(CCNc2ncnc3[nH]ncc23)cc1OC	17.6
CCN(CC)c1ccc(NC(=O)Cn2nnc(-c3cccc(OC)c3OC)n2)c(C)c1	7.99
COc1ccc(Cl)cc1NC(=O)CN(C)C(C)C(=O)NCC1CCCCC1 (stereo not drawn)	9.96
Cc1ccc(OCc2cc(C(=O)NCc3cnn(-c4cccc(F)c4)c3)no2)cn1	16.3
Cn1c(CNc2cccc(Cl)c2)nnc1SCC#N	8.75
O=C(Nc1nnc(-c2cccs2)o1)c1cccc(Oc2ccccc2)c1	8.86
CNC(=S)NNC(=O)COc1ccccc1C	11.7
O=C(NCc1ccccc1)c1cnc2n(c1=O)CCS2	11.1
CCOc1ccccc1/C=N/OCC(=O)NCc1ccc(F)cc1	12
COc1cccc(F)c1C(=O)NC(=O)Nc1ccc2nc(C)oc2c1	5.11
O=C(CSc1nnc(CNC(=O)c2c(F)cccc2Cl)o1)Nc1ccc2c(c1)OCO2	8.96
Cc1ccc(C)c2c(SC(C)C(=O)NCc3ccco3)nc(-c3ccccc3)nc12 (stereo not drawn)	-71.2
COc1cc(C(=O)Nc2sc(C)c(C)c2C(=O)O)cc(OC)c1OC	13.7
O=[N+]([O-])c1ccccc1/C=C/CN1CCSCC1	9.42
COc1ccc(-c2nn(-c3ccccc3)cc2CO)cc1	4.87
COc1ccccc1Oc1ccc(N2CC(C(=O)OCC(=O)c3ccccc3)CC2=O)cc1 (stereo not drawn)	7.47

Compound	hERG current change (%, negative = inhibition) at 1uM [%]
CCOC(=O)c1c(-c2ccccc2)csc1NC(=O)CSc1ccccc1	-1.83
Cc1cc2oc(=O)cc(COC(=O)Cn3cnnn3)c2cc1C(C)C	14.1
Cc1ccc(NS(=O)(=O)c2ccc(F)cc2)nc1	11
CC1(C)CC(NNCCC#N)=CC(=[N+]2CCCC2)C1.[I-]	13.2
O=C(NC1CCN(C(=S)NCc2ccco2)CC1)C1CCCCC1	16.1
Cc1c(NC(=S)NC(=O)c2ccc(-c3ccc(Cl)cc3)o2)cccc1C(=O)O	10.2
COC(=O)c1cccc(NC(=O)CN2CCOCC2)c1	13.6
CCOC(=O)C1CCCN(S(=O)(=O)c2cc3c(cc2Cl)NC(=O)CO3)C1 (stereo not drawn)	-15.8
COc1cccc(OC)c1C(=O)NC(=S)Nc1ccc2oc(-c3ccncc3)nc2c1	9.55
C[C@H](NC(=O)Cc1ccccc1)C(=O)N1CCC2(CC1)NCCc1[nH]cnc12	11
CN(CCC#N)C(=O)COC(=O)c1ccc(Cl)cc1O	10.6
CN(C(=O)COC(=O)COc1ccc(Cl)cc1)C1CCCCC1	3.65
CCOc1cc(NC(=S)NCC2CCCO2)c(OCC)cc1NC(=O)c1cccc(F)c1 (stereo not drawn)	3.88
COc1ccc(C2C(Oc3ccccc3)C(=O)N2c2cc(C)ccc2C)cc1OC (stereo not drawn)	0.848
CC(C)c1cc(C(=O)N2CCCC(Nc3ccc(F)c(F)c3)C2)nc(N)n1 (stereo not drawn)	9.15
Cc1ccccc1NC(=O)c1snc2c(=O)[nH]cnc12	10
Cc1cccc(N(CC(=O)NC2CCCCC2)C(=O)CCCC(=O)Nc2ccccn2)c1C	-6.88
CC(C)c1ccc(N2C(=NC(=O)C3CC3)SC3CS(=O)(=O)CC32)cc1 (stereo not drawn)	5.91
CSc1ccc(/C=C/C(=O)OCC(=O)N2CCc3ccccc32)cc1	7.47
Cl.N=c1sc2c(n1Cc1ccccc1)CCCC2	-5.2
CCC[C@H](CN[C@@H](CNC)[C@H](C)O)NCCc1ccc(OC)cc1	-0.853
